The text below walks through data of article PMC3750173, “Ferredoxin Competes with Bacterial Frataxin in Binding to the Desulfurase IscS*^([image sbox.jpg])” (The Journal of Biological Chemistry, 2013).

This experiment deals with T1, IscS (E. coli desulfurase), wild type (E. coli, UniProt P0A6B7 1-404).
T1 construct: cysteine desulfurase IscS, E. coli; construct pET-11 IscS (EMBL-Hamburg); Dimer by SAXS; also called desulfurase IscS
T1 sequence: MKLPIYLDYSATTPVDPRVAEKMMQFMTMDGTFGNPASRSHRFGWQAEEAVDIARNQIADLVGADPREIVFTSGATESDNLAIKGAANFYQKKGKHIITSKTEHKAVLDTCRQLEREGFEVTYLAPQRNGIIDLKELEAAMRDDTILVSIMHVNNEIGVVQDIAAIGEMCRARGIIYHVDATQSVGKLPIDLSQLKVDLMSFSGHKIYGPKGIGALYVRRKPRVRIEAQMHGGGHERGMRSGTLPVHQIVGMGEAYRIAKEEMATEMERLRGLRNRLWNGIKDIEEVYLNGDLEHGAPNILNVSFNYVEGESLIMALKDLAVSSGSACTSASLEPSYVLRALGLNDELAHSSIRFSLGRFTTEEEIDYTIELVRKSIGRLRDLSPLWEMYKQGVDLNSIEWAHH
The experiment is described as follows: BLI; competition: immobilised biotinylated holo-Fdx exposed to 10 μM IscS at 0-100 μM CyaY, in the presence of 30 μM IscU; 20 mM HEPES pH 7.5, 150 mM NaCl, 2 mM TCEP, 0.5 mg/ml BSA, 25 °C. The settings on record: both partners purified. Background: Biolayer interferometry detects binding as a change in optical thickness at a sensor tip.

B1: IscU (Fe-S cluster scaffold protein) (natural protein, E. coli, UniProt P0ACD4 1-128, looked up)
chain: MAYSEKVIDHYENPRNVGSFDNNDENVGSGMVGAPACGDVMKLQIKVNDEGIIEDARFKTYGCGSAIASSSLVTEWVKGKSLDEAQAIKNTDIAEELELPPVKIHCSILAEDAIKAAIADYKSKREAK
notes: IscU, Fe-S cluster scaffold protein, E. coli
As for B1, the binding result is on record as “binds”.
